The text below walks through data of the supplement of paper PMC7826260.

Some of the results follow. Viral Rep nickase domains cut single-stranded DNA in vitro (3 µM enzyme, 1 h, 37 °C); shown is the middle of each 90-letter strand. A value is the log2 ratio of uncut reads to the pool without enzyme; uncut sequences lie near 0, cut ones below; no hit call is given. Shares of all reads are compared, so uncut sequences can rise above 0 when many others are cut.

The test relates to T1, Rep nickase domain of tomato golden mosaic virus.
T1 sequence (residues 1-124 of Rep, tag left off): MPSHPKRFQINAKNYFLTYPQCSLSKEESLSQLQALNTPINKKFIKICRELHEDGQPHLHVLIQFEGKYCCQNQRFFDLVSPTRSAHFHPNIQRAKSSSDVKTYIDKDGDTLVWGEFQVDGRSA
The test is described as follows: uncleaved DNA left, log2 of reads against the no-enzyme library (log2 ratio); higher = less cleavage (more negative = more Rep cleavage of the k-mer); sequences stand for … in CTCGTCCG…ACCGGAGA
How it is done: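 A pool of 90-nt single-stranded DNAs with seven random bases just before the constant AC of the nick site (name = the seven bases) was cut by 3 µM recombinant His6-SUMO-tagged Rep nickase domain (300 nM DNA, 50 mM HEPES pH 8.0, 50 mM NaCl, 1 mM MnCl2, 1 h, 37 °C, three replicates). Uncut DNA was amplified and sequenced.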
As to CTGTCGA, the “uncleaved DNA left (log2)” value was -0.0427. On to AACATTT, for which the “uncleaved DNA left (log2)” value was -0.158.

On to TCCGGGT, for which the “uncleaved DNA left (log2)” value was determined as 0.0975. GTTATCT: the “uncleaved DNA left (log2)” value came out at 0.137.

Turning to CTCACAA, the “uncleaved DNA left (log2)” value is -0.0622.

For the sequence ACGTAGG, the “uncleaved DNA left (log2)” value worked out at 0.107. Consider TGTCCAG, for which the “uncleaved DNA left (log2)” value was -0.168. Under TCTTCGT stands -0.224; under AATCATA, 0.0469; under CCCCCAA, 0.00152.

Turning to AATTGTG, the “uncleaved DNA left (log2)” value stood at 0.0578. As for AAACGTA, the “uncleaved DNA left (log2)” value is 0.0675. The figure for GAAATCA is 0.045. The figure for ATGGCCT is 0.0672.

With CTGACAA, the “uncleaved DNA left (log2)” value was -0.0749. The figure for TGGCGGA is -0.119; for GTCGTAC it is -0.039; for CACTGCC it is -0.116. With GTGGATA, the “uncleaved DNA left (log2)” value was found to be 0.0297.

For the sequence GATAGTA, the “uncleaved DNA left (log2)” value was found to be 0.14. ACGCGTG: the “uncleaved DNA left (log2)” value is -0.115. Take CGTCGGG: the “uncleaved DNA left (log2)” value was -0.159. The figure for CATTGCC is -0.0231; for TCTACTA it is -0.0134; for CCCTGAA it is -0.0909. The figure for CATCCTG is -0.0238; for TATGTCT it is -0.241; for CGCCAGC it is -0.0296. Under GAACAAT stands 0.0114; under GACGAGT, -0.0743; under GGCCTGT, 0.0989. Consider ATTCACA, for which the “uncleaved DNA left (log2)” value worked out at 0.0627. Take AGGAGCT: the “uncleaved DNA left (log2)” value turned out to be 0.0397.

For GTGAAAA, the “uncleaved DNA left (log2)” value came to 0.106. Under AGTACGG stands 0.19; under ACAACCG, 0.0632.

As for TTATCCC, the “uncleaved DNA left (log2)” value is -0.0817. In the case of TGATCCC, the “uncleaved DNA left (log2)” value worked out at 0.0513. Under TGCACGT stands -0.122; under TCGTCAG, 0.22.
